According to PMC4336329 (PLoS ONE, 2015):
About 2,200 (0.71%) of roughly 310,000 compounds showed an effect of 50% or more. Effects have a minus sign here. The list shows a part of the results.

These compounds were tested against human ether-à-go-go-related gene (hERG) potassium channel (human, UniProt Q12809) (assay: primary screen, population patch clamp on CHO cells stably expressing hERG).
Chain of human ether-à-go-go-related gene (hERG) potassium channel (Q12809 whole entry, looked up): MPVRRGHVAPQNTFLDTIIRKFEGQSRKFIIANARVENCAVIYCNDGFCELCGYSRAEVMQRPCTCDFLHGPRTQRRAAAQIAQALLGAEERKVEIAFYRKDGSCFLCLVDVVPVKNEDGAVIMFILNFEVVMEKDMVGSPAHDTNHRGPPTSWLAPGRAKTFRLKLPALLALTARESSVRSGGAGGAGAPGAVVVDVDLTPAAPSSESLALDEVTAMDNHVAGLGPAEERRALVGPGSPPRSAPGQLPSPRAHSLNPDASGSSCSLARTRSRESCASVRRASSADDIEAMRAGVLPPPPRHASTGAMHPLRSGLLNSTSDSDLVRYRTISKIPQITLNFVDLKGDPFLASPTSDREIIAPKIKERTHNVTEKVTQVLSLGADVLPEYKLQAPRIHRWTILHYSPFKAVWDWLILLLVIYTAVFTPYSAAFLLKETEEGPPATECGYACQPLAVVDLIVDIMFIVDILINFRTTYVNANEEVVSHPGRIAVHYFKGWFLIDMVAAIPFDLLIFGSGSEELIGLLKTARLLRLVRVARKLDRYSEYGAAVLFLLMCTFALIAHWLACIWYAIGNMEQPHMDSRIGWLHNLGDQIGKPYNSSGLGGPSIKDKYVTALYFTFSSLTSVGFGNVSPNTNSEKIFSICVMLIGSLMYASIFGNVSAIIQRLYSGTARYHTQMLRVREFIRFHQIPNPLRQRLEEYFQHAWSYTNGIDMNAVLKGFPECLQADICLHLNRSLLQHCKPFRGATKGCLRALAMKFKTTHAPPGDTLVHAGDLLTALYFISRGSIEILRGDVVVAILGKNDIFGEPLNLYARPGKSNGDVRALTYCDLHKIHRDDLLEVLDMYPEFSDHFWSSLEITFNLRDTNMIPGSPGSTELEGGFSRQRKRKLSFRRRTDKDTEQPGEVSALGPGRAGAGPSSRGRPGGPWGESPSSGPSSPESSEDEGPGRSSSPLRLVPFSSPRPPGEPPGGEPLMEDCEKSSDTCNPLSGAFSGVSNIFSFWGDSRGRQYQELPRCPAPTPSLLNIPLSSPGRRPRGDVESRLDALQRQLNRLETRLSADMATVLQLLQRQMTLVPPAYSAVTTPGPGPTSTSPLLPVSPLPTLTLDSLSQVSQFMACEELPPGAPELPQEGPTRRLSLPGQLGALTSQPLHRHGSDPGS

Row | SMILES | hERG current change (%, negative = inhibition) at 1uM
1 | CN1CCOc2cc(S(=O)(=O)Nc3ccc(F)cc3)ccc21 | 6.06%
2 | O=C(Nc1ccccc1)c1ccc(NCCc2ccccc2)c([N+](=O)[O-])c1 | 14.6%
3 | Cc1cccc(-c2nc(CNC(=O)c3ccco3)cs2)c1 | -4.2%
4 | COc1ccc(N2CC(C(=O)N[C@@H](C)C(=O)NCCc3ccccc3)CC2=O)cc1 (stereo partly drawn) | 15.4%
5 | CCCN(CCC)S(=O)(=O)c1ccc(NC(=O)COc2ccccc2)cc1 | 1.27%
6 | COc1ccc(O)c(CN2CCC(n3nccc3NC(=O)CCOc3ccccc3)CC2)c1 | -23.8%
7 | COc1ccc(-n2c(SCC(=O)Nc3ccc(C(=O)O)cc3)nnc2-c2cccs2)cc1 | 12.8%
8 | Cc1ccccc1C(=O)Nc1ccc(N2CCCCCC2)cc1 | 15.9%
9 | COc1ccc2c(c1)C(NC(=O)C(F)(F)F)CC2=O (stereo not drawn) | 7.68%
10 | CCOc1ccc(NC(=O)C(c2ccccn2)N(C(=O)CCl)c2ccc(F)cc2)cc1 (stereo not drawn) | 9.58%
11 | CN1CCN(c2ccc(S(=O)(=O)N3CCOCC3)cc2)CC1 | 15.8%
12 | CC(=O)Nc1nonc1C(=O)N1CCC(C)CC1 | -1.17%
13 | Cc1ccc(N(C(=O)c2csnn2)C(C(=O)NC2CCCCC2)c2ccccn2)c(C)c1 (stereo not drawn) | 9.9%
14 | Cc1ccc(NC(=O)CN2C(=O)N/C(=C\c3cccnc3)C2=O)cc1 | 0.0136%
15 | CN(C)S(=O)(=O)N(CC(=O)Nc1ccccc1)c1ccccc1 | -0.556%
16 | Cc1ccc2[nH]c3c(=O)n(CCCN4CCN(C)CC4)cnc3c2c1 | -12.6%
17 | Cc1ccc(CN2CC[C@H]3C=CCc4cccc(c43)C2)cc1 | 2.13%
18 | N#Cc1nc(COc2ccc(Br)cc2)oc1NCCN1CCOCC1 | -14.2%
19 | CC(=O)NC12CC3CC(C1)CC(C(=O)N1CCN(S(=O)(=O)c4cccc(C(F)(F)F)c4)CC1)(C3)C2 | 13.8%
20 | CN1CCN(NC(=O)CN2C(=O)/C(=C/c3c(Cl)cccc3Cl)SC2=S)CC1 | 3.52%
21 | O=C(NCc1ccc(-c2nc3ccccc3s2)cc1)c1cc2ccccc2o1 | 7.37%
22 | CC(/C=N/NC(=O)Cc1cccn1C)=C\c1ccco1 | -4.12%
23 | COc1cccc2cc(C(=O)C3=C(O)C(=O)N(Cc4ccco4)C3c3cccnc3)oc12 (stereo not drawn) | -5.76%

Row | SMILES | hERG current change (%, negative = inhibition) at 1uM
24 | Cc1cccc(C(=O)NCCCn2ccnc2)c1C | 4.84%
25 | Cc1ccc2c3c(c(SCC(=O)Nc4nonc4C)nc2c1)CCCC3 | 13.6%
26 | Cc1ccc(SC(C)C(=O)Nc2ncn[nH]2)cc1 (stereo not drawn) | -0.0544%
27 | COc1ccc(C(=O)NCC(c2ccc3c(c2)OCO3)N2CCN(c3ccc(OC)cc3)CC2)cc1 (stereo not drawn) | -7.95%
28 | C[C@H]1C=C(C(=O)NCc2nc3ccccc3[nH]2)O[C@@H](OCc2ccc(CO)cc2)C1 | 2.38%
29 | CC(=O)c1c(C)[nH]c(C(=O)N2CCCCCC2)c1C | -1.4%
30 | C=CCn1c(C(C)NC(=O)c2ccccc2C)n[nH]c1=S (stereo not drawn) | 11.5%
31 | CCOc1ccc(-n2ccc(=O)c(C(=O)Nc3ccc(S(=O)(=O)N4CCOCC4)cc3)n2)cc1 | 12.1%
32 | CCc1nnc(NC2=NCCC2)s1 | 7.88%
33 | O=C1c2ccc([N+](=O)[O-])cc2NC(c2ccco2)N1/N=C/c1ccco1 (stereo not drawn) | 11.2%
34 | COc1cccc(/C=N/NC(=O)c2cccc([N+](=O)[O-])c2)c1OS(=O)(=O)c1ccc(C)cc1 | 5.84%
35 | O=C(O)CNC1=NCCCCC1 | 3.16%
36 | Cc1ccc(C)c(SCc2noc(C(=O)NCC3CCCO3)c2C(=O)O)c1 (stereo not drawn) | 13%
37 | COc1ccc(C(=O)n2cnc(N)n2)cc1 | 11.4%
38 | COc1ccc(C(=O)NC(C)CCc2ccccc2)c(OC)c1 (stereo not drawn) | -3.35%
39 | CN(Cc1cccc(Cl)c1)C(=O)C1CCN(C(=O)Nc2ccccc2)CC1 | -8.1%
40 | COC(=O)c1c(O)cc(=O)n2c1CCCCC2 | 14.1%
41 | Cc1c(Br)c(O)c(Br)c(O)c1/C=N/n1c(-c2ccccc2)n[nH]c1=S | 16.2%
42 | COc1cc(/C=C2\SC(c3ccc(C)cc3)=NC2=O)cc(OC)c1OC | 11.2%
43 | CC(=O)Nc1ccc(S(=O)(=O)NC(CC(=O)O)c2ccc(OC(C)C)cc2)cc1 (stereo not drawn) | 10.6%
44 | COc1cc(OC)c2c(=O)c(OC)c(-c3ccc(OC)c(OC)c3)oc2c1 | 11.6%
45 | C=CCn1c(=NC(=O)CN2C(=O)CCC2=O)sc2cc(S(N)(=O)=O)ccc21 | 18.5%
